In the supplement of paper PMC12217912:
This is one part of the list. The full chains were built here from the parent and the listed change. Values near 0.05 are background.

B1: TEV protease; numbered along this chain (parent)
chain: MGESLFKGPRDYNPISSSICHLTNESDGHTTSLYGIGFGPFIITNKHLFRRNNGTLVVQSLHGVFKVKDTTTLQQHLVDGRDMIIIRMPKDFPPFPQKLKFREPQREERICLVTTNFQTKSMSSMVSDTSCTFPSGDGIFWKHWIQTKDGQCGSPLVSTRDGFIVGIHSASNFTNTNNYFTSVPKNFMELLTNQEAQQWVSGWRLNADSVLWGGHKVFMVKPEEPFQPVKEATQL

Variants of: B1
Experiment: raw area under fraction-flipped curve 0-4 h after induction (AUC4h, not background-subtracted), DNA-recorder readout of cleavage of the substrate (dimensionless); higher = more cleavage of the substrate by the protease variant
Conditions: temperature: 34 °C; time window: 0-4 h after rhamnose induction
Description: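 In vivo DNA recorder in E. coli TOP10(DE3) ΔrhaA at 34 °C. Each TEVp single-site mutant (parent TEVp 0) is paired with a single-site variant of the 7-mer TEVs (canonical ENLYFQ|S). The substrate sits between flexible linkers in a Bxb1-sfGFP-TEVs-SsrA fusion, so cleavage stabilises Bxb1 and speeds flipping of a recombination array, read by NGS. The value is the raw area under the fraction-flipped curve over 0-4 h after rhamnose induction (AUC4h), with ≥20 reads per time point. It is not background-subtracted; inactive controls average about 0.047.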
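Further: Bxb1 expression induced with 0.2% (w/v) L-rhamnose at OD600 near 0.5, cultures sampled hourly, flipped fraction per protease–substrate barcode pair counted by paired-end Illumina sequencing.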

Variant: G28I
- area with substrate ENLYFCS: 0.0518
- area with substrate ENLYFDS: 0.0611
- area with substrate ENLYFES: 0.0622
- area with substrate ENLYFFS: 0.0696
- area with substrate ENLYFGS: 0.0596
- area with substrate ENLYFHS: 0.0665
- area with substrate ENLYFIS: 0.0586
- area with substrate ENLYFKS: 0.0598
- area with substrate ENLYFMS: 0.0631
- area with substrate ENLYFNS: 0.0602
- area with substrate ENLYFPS: 0.0612
- area with substrate ENLYFRS: 0.0744
- area with substrate ENLYFSS: 0.0533
- area with substrate ENLYFTS: 0.0669
- area with substrate ENLYFWS: 0.0711
- area with substrate ENLYFYS: 0.0535

Variant: S60K
- area with substrate ENLYFCS: 0.0576
- area with substrate ENLYFDS: 0.0576
- area with substrate ENLYFES: 0.0557
- area with substrate ENLYFHS: 0.0634
- area with substrate ENLYFIS: 0.0507
- area with substrate ENLYFLS: 0.0829
- area with substrate ENLYFMS: 0.05
- area with substrate ENLYFNS: 0.0535
- area with substrate ENLYFPS: 0.0749
- area with substrate ENLYFSS: 0.0604
- area with substrate ENLYFTS: 0.0597
- area with substrate ENLYFVS: 0.0551
- area with substrate ENLYFWS: 0.0547

Variant: G150V
- area with substrate ENLYFCS: 0.0488
- area with substrate ENLYFDS: 0.0623
- area with substrate ENLYFES: 0.0659
- area with substrate ENLYFFS: 0.0579
- area with substrate ENLYFGS: 0.062
- area with substrate ENLYFHS: 0.0646
- area with substrate ENLYFIS: 0.0575
- area with substrate ENLYFKS: 0.043
- area with substrate ENLYFLS: 0.0638
- area with substrate ENLYFMS: 0.0615
- area with substrate ENLYFPS: 0.0567
- area with substrate ENLYFRS: 0.0591
- area with substrate ENLYFSS: 0.0668
- area with substrate ENLYFTS: 0.0612
- area with substrate ENLYFVS: 0.0645
- area with substrate ENLYFWS: 0.0401
- area with substrate ENLYFYS: 0.0484

Variant: V229C
- area with substrate ENLYFAS: 0.059
- area with substrate ENLYFCS: 0.0478
- area with substrate ENLYFDS: 0.0737
- area with substrate ENLYFES: 0.062
- area with substrate ENLYFIS: 0.0542
- area with substrate ENLYFKS: 0.0376
- area with substrate ENLYFLS: 0.0652
- area with substrate ENLYFMS: 0.071
- area with substrate ENLYFNS: 0.0533
- area with substrate ENLYFPS: 0.067
- area with substrate ENLYFSS: 0.0509
- area with substrate ENLYFTS: 0.061
- area with substrate ENLYFYS: 0.0513

Variant: F133W
- area with substrate ENLYFCS: 0.0639
- area with substrate ENLYFDS: 0.0567
- area with substrate ENLYFES: 0.015
- area with substrate ENLYFFS: 0.0664
- area with substrate ENLYFGS: 0.0594
- area with substrate ENLYFHS: 0.0466
- area with substrate ENLYFIS: 0.0444
- area with substrate ENLYFKS: 0.05
- area with substrate ENLYFLS: 0.0283
- area with substrate ENLYFMS: 0.0627
- area with substrate ENLYFNS: 0.0678
- area with substrate ENLYFPS: 0.0602
- area with substrate ENLYFRS: 0.0719
- area with substrate ENLYFSS: 0.0549
- area with substrate ENLYFTS: 0.0607
- area with substrate ENLYFVS: 0.0605
- area with substrate ENLYFWS: 0.0723
- area with substrate ENLYFYS: 0.0896

Variant: S158G
- area with substrate ENLYFCS: 0.0676
- area with substrate ENLYFDS: 0.0605
- area with substrate ENLYFES: 0.0535
- area with substrate ENLYFFS: 0.0618
- area with substrate ENLYFGS: 0.0764
- area with substrate ENLYFHS: 0.0574
- area with substrate ENLYFIS: 0.0491
- area with substrate ENLYFMS: 0.0662
- area with substrate ENLYFNS: 0.0616
- area with substrate ENLYFPS: 0.0678
- area with substrate ENLYFRS: 0.0606
- area with substrate ENLYFSS: 0.0598
- area with substrate ENLYFTS: 0.0686
- area with substrate ENLYFVS: 0.0615
- area with substrate ENLYFWS: 0.0578

Variant: N52P
- area with substrate ENLYFCS: 0.0358
- area with substrate ENLYFDS: 0.0594
- area with substrate ENLYFES: 0.0718
- area with substrate ENLYFFS: 0.0608
- area with substrate ENLYFHS: 0.0522
- area with substrate ENLYFIS: 0.0668
- area with substrate ENLYFLS: 0.0442
- area with substrate ENLYFNS: 0.0576
- area with substrate ENLYFPS: 0.0565
- area with substrate ENLYFRS: 0.06
- area with substrate ENLYFWS: 0.0658

Variant: N52V
- area with substrate ENLYFCS: 0.0536
- area with substrate ENLYFDS: 0.0639
- area with substrate ENLYFES: 0.0603
- area with substrate ENLYFFS: 0.0672
- area with substrate ENLYFHS: 0.0596
- area with substrate ENLYFIS: 0.0596
- area with substrate ENLYFKS: 0.0506
- area with substrate ENLYFLS: 0.0596
- area with substrate ENLYFMS: 0.0468
- area with substrate ENLYFNS: 0.0569
- area with substrate ENLYFPS: 0.0576
- area with substrate ENLYFRS: 0.0551
- area with substrate ENLYFSS: 0.0578
- area with substrate ENLYFTS: 0.071
- area with substrate ENLYFWS: 0.0527

Variant: P104G
- area with substrate ENLYFCS: 0.0503
- area with substrate ENLYFES: 0.0464
- area with substrate ENLYFFS: 0.0599
- area with substrate ENLYFHS: 0.0486
- area with substrate ENLYFIS: 0.0556
- area with substrate ENLYFKS: 0.0445
- area with substrate ENLYFLS: 0.0761
- area with substrate ENLYFMS: 0.0475
- area with substrate ENLYFNS: 0.063
- area with substrate ENLYFPS: 0.0576
- area with substrate ENLYFRS: 0.0504
- area with substrate ENLYFTS: 0.055
- area with substrate ENLYFVS: 0.0535
- area with substrate ENLYFWS: 0.0513
- area with substrate ENLYFYS: 0.0423

Variant: G37W
- area with substrate ENLYFCS: 0.0634
- area with substrate ENLYFDS: 0.0426
- area with substrate ENLYFES: 0.0523
- area with substrate ENLYFFS: 0.0662
- area with substrate ENLYFHS: 0.0623
- area with substrate ENLYFIS: 0.0566
- area with substrate ENLYFKS: 0.0767
- area with substrate ENLYFLS: 0.0669
- area with substrate ENLYFMS: 0.0681
- area with substrate ENLYFNS: 0.0528
- area with substrate ENLYFPS: 0.05
- area with substrate ENLYFRS: 0.0621
- area with substrate ENLYFSS: 0.0488
- area with substrate ENLYFTS: 0.0534
- area with substrate ENLYFWS: 0.0593

Variant: T70I
- area with substrate ENLYFCS: 0.0567
- area with substrate ENLYFFS: 0.0762
- area with substrate ENLYFGS: 0.0586
- area with substrate ENLYFHS: 0.0613
- area with substrate ENLYFIS: 0.0515
- area with substrate ENLYFKS: 0.0747
- area with substrate ENLYFMS: 0.0686
- area with substrate ENLYFNS: 0.0541
- area with substrate ENLYFPS: 0.0444
- area with substrate ENLYFRS: 0.0402
- area with substrate ENLYFSS: 0.0673
- area with substrate ENLYFTS: 0.0557
- area with substrate ENLYFVS: 0.0674
- area with substrate ENLYFWS: 0.0592
- area with substrate ENLYFYS: 0.0582

Variant: P14Y
- area with substrate ENLYFCS: 0.0835
- area with substrate ENLYFES: 0.0604
- area with substrate ENLYFFS: 0.097
- area with substrate ENLYFHS: 0.0612
- area with substrate ENLYFIS: 0.0614
- area with substrate ENLYFKS: 0.0421
- area with substrate ENLYFLS: 0.0637
- area with substrate ENLYFMS: 0.0691
- area with substrate ENLYFPS: 0.0754
- area with substrate ENLYFRS: 0.0709
- area with substrate ENLYFTS: 0.0618
- area with substrate ENLYFVS: 0.0527
- area with substrate ENLYFWS: 0.0605
- area with substrate ENLYFYS: 0.0647
